From article PMC4336329 (PLoS ONE, 2015)
Among all 310,000 compounds or so, about 14,000 (4.5%) showed an effect of 50% or more. The effect is printed as a negative number. The list shows a part of the results.

The compounds below were run against human ether-à-go-go-related gene (hERG) potassium channel (human, UniProt Q12809) (assay: primary screen, population patch clamp on CHO cells stably expressing hERG).
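Further: peak tail current of the secondary pulse compared with the same well before compound.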

human ether-à-go-go-related gene (hERG) potassium channel, sequence (Q12809 whole entry, looked up): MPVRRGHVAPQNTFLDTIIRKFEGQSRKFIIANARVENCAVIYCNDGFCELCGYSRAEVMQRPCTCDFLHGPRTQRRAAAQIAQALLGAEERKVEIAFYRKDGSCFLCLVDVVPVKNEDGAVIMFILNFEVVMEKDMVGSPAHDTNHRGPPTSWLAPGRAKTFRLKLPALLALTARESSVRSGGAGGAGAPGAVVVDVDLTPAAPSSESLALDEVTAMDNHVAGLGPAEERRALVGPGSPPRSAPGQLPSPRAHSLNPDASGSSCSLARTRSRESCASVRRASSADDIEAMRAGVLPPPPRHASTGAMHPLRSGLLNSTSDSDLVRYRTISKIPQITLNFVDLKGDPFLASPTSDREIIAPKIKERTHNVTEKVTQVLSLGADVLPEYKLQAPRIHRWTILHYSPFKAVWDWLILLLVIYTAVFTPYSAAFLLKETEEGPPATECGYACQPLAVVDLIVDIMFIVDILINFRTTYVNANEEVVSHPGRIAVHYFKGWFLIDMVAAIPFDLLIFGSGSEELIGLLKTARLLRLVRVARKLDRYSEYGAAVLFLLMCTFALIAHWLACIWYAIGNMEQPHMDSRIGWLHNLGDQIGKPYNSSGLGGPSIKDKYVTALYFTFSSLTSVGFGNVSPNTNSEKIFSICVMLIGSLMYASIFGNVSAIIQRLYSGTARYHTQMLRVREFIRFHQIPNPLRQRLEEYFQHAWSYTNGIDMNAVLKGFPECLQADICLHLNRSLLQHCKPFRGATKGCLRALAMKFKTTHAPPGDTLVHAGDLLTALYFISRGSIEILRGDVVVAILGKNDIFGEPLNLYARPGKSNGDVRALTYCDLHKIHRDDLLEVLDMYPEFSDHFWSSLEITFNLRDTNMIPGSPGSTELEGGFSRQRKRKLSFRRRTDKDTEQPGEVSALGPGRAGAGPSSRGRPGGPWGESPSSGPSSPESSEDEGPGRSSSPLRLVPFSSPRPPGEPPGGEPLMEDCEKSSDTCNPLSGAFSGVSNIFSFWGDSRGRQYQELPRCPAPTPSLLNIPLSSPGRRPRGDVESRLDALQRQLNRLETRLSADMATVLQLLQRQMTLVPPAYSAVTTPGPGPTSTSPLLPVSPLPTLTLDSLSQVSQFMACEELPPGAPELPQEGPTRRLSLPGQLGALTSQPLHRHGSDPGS

Compound	hERG current change (%, negative = inhibition) at 10uM
CCOC(=O)CSc1nnc(SCCN2C(=O)c3ccccc3C2=O)s1	-15.4%
CCC(=O)OC1(C)C(=O)C2=COC(c3ccc(OC)cc3)=CC2=C(Br)C1=O (centres unmarked)	1.2%
O=C(CCN1C(=O)C2C3C=CC(C4CC34)C2C1=O)Oc1cccc2cccnc12 (centres unmarked)	-11.1%
CCN(CC)C(=O)c1ccc(N2C(=O)C3CC=C(Cl)CC3C2=O)cc1 (centres unmarked)	8.28%
O=C(Nc1ccccc1)c1c2c(nc3ccccc13)CCCC2	-0.42%
FC(F)(F)c1cc(NCc2cccs2)n2ncnc2n1	-3.38%
CCCOc1ccc(-c2c(C(=O)N/N=C/c3cccnc3)nnn2-c2nonc2N)cc1	-1.38%
CCCn1c(N2CCN(CC(=O)c3c[nH]c4ccccc34)CC2)nc2c1c(=O)[nH]c(=O)n2C	-25.1%
CCOC(=O)c1ccc(NC(=O)c2cc(C)nc3ccccc23)cc1	21.7%
Cc1noc(C(=O)N2CCN(c3ccccc3)CC2)c1Cl	6.13%
COc1ccc(Nc2ccc(Nc3ccc(OC)cc3)nn2)cc1	18.6%
N#Cc1ccc(NC(=O)Cn2cnc(S(=O)(=O)N3CCc4ccccc43)c2)cc1	-4.98%
CC(=O)NCCC(=O)NCC1(N(C)Cc2ccccc2)Cc2ccccc2C1	16.6%
CCCCNC(=O)C(=O)NCC1CCCN1S(=O)(=O)c1cccs1 (centres unmarked)	-7.61%
Cc1c(CC(=O)NCC(=O)O)c(=O)oc2cc3c(cc12)CCC(C)(C)O3	8.47%
CC(COc1ccc(C(C)C)cc1)NC(=O)c1ccc(Br)o1 (centres unmarked)	3.57%
CC(C)C(C(=O)NCC1CCCO1)N(Cc1ccco1)C(=O)CNS(=O)(=O)c1ccc(F)cc1 (centres unmarked)	-7.07%
CCOC(=O)N1CCN(C(=O)Nc2ccc3oc(C)nc3c2)CC1	3.86%
N#Cc1cc([N+](=O)[O-])ccc1NC(=O)COC(=O)CCC1CCCCC1	23.9%
CC1CN(C(=O)c2cc3ccccc3oc2=O)CC(C)O1 (centres unmarked)	-7%
CCn1c(SCc2ccc(C#N)cc2)nnc1-c1cccc(Cl)c1	-73.6%
CC1(C)CC(=O)C(C=NCCN2CCN(C3CC(=O)N(c4ccc(Cl)c(Cl)c4)C3=O)CC2)=C(O)C1 (centres unmarked)	-50.2%

Compound	hERG current change (%, negative = inhibition) at 10uM
CCOC(=O)N1CCC(N(CCN(C)C)C(=S)Nc2cc(Cl)cc(Cl)c2)CC1	-1.07%
Cc1occc1C(=O)N1CCN(c2ccc(Cl)c(Cl)c2)CC1	-17.9%
C/C(CC(=O)NCc1ccco1)=N\NC(=O)COc1ccc(C)cc1	-1.31%
O=c1[nH]c(C2CCCN(S(=O)(=O)c3ccccc3)C2)nc2c1nnn2Cc1ccccc1 (centres unmarked)	-18.4%
CN1C(=O)C(CC(=O)NCCc2ccccc2)N(NC(=O)c2ccc(Cl)cc2)C1=S (centres unmarked)	1.83%
Cc1ccc(Oc2nc3ccccc3n3c(C)nnc23)cc1	11%
CC(=O)Oc1ccccc1C(=O)Oc1ccc(/C=N/n2cnnc2)cc1	-25.1%
O=[N+]([O-])c1ccc2c(c1)S(=O)c1ccccc1-2 (centres unmarked)	7.17%
CC(Sc1n[nH]c(-c2ccccc2F)n1)C(=O)Nc1ccc(S(N)(=O)=O)cc1 (centres unmarked)	6.45%
O=C(NCC(=O)N(c1ccc(Cl)cc1)C(C(=O)NC1CCCC1)c1cccnc1)c1ccco1 (centres unmarked)	16.6%
COc1ccc(/C=N/n2cnc3c(sc(=S)n3-c3ccccc3)c2=O)cc1	13.4%
COc1ccc(C2(C)NC(=O)N(Cc3cc(Cl)cc4c3OCOC4)C2=O)cc1OC (centres unmarked)	-4.4%
CCCCC(=O)NC(c1ccccc1OC)c1ccc2cccnc2c1O (centres unmarked)	-5.73%
COc1ccc(NC(=O)Nc2ccccc2F)cc1Cl	32.4%
COc1cc(C(=S)N2CCC(Cc3ccccc3)CC2)ccc1OCC(N)=O	-46.8%
CC(C)C1/C(=N/O)CC(c2ccccc2)NC1c1ccccc1 (centres unmarked)	11.3%
O=C(NCCCl)Nc1cccnc1Cl	12.2%
CCOC(=O)c1ccc(NC(=S)N2CCN(CCN=CC3=C(O)CC(c4ccccc4)CC3=O)CC2)cc1 (centres unmarked)	-19.9%
O=S1(=O)CCC(NC(=S)NCCNC(=S)NC2CCS(=O)(=O)C2)C1 (centres unmarked)	8.43%
CN1CC2(Cc3c1ccc1ccccc31)C(=O)OC(C)(C)OC2=O	18%
CC1=C(C(=O)OCc2ccccc2)C(c2ccc3c(c2)OCO3)NC(=O)N1CCCC(=O)O (centres unmarked)	11%
CC(=O)N1CCN(S(=O)(=O)c2cccc(C(=O)NC3CCCc4ccccc43)c2)CC1 (centres unmarked)	-6.31%

Compound	hERG current change (%, negative = inhibition) at 10uM
O=C(CSc1nc2ccccc2o1)N1c2ccccc2Sc2ccccc21	-19.9%
CCOC(=O)c1ccc(N=Nc2c(C)c(C#N)c(O)[nH]c2=O)cc1	1.91%
O=C1c2ccccc2S(=O)(=O)N1CC1CC(c2ccccc2Cl)=NO1 (centres unmarked)	-4.75%
Cc1c(OCC(=O)NCc2ccncc2)ccc2c3c(c(=O)oc12)CCC3	-0.0872%
CC(=O)N1CCc2cc(S(=O)(=O)NC(CC(C)C)C(=O)Nc3cc(C)ccn3)ccc21 (centres unmarked)	14.1%
Cc1noc(C)c1C(=O)Nc1ccc(C#N)cc1	17.3%
Cn1cccc1/C=N\NC(=O)C1COc2ccc(C(C)(C)C)cc2O1 (centres unmarked)	-3.42%
CC(NC(=O)CN(C)Cc1cccc(Cl)c1)c1ccccc1 (centres unmarked)	-15.3%
COc1ccccc1C(=O)Nc1ccc(S(=O)(=O)Nc2nccs2)cc1	15.7%
CC1CC(C)CN(C(=O)Cn2c(=O)n(CCCCC(=O)NCc3ccco3)c(=O)c3ccccc32)C1 (centres unmarked)	-10.5%
O=C(COc1ccc(Br)cc1)OCc1nnc(-c2ccccc2)o1	9.77%
O=C(/C=C/c1cccc(F)c1)Nc1nccs1	12%
O=C(c1nsnc1-c1ccccc1O)N1CCCCC1	9.56%
O=c1[nH]c(CN2CCN(c3ccccn3)CC2)nc2c(Br)cc(Br)cc12	-33.2%
CC(C)C[C@H](N)C(=O)N1CCC(C(=O)N[C@H](C(=O)NCc2ccc(F)cc2)C(C)C)CC1	-3.91%
COc1ccnc(Oc2ccc(Cl)cc2)c1C#N	0.996%
COc1ccc(N2CCN(C(=O)CN3CCN(C(c4ccccc4)c4ccccc4)CC3)CC2)cc1.Cl	-46%
COCCNc1nnc(SCC(=O)Nc2cc(-c3ccccc3)nn2-c2ccccc2)s1	-50.9%
CCCCOc1[nH]c2nc(-c3ccco3)n(Cc3ccco3)c(=N)c2c1C#N	-69.1%
Cc1ccc2c(c1)c(C)cc(=O)n2CCC(=O)O	6.86%
O=C(NCCN1CCOCC1)/C(=C/c1ccco1)NC(=O)c1ccccc1	-5.48%
CCCOc1ccc([N+](=O)[O-])cc1C1NC(=S)NC(c2ccccc2)=C1C(=O)OCC (centres unmarked)	13.9%

Compound	hERG current change (%, negative = inhibition) at 10uM
CCCCOC(=O)C1CCCC(C(=O)OCCCC)N1.Cl (centres unmarked)	9.8%
CC1=Nc2ccccc2/C1=C\c1nc(-c2ccc(C(F)(F)F)cc2)oc1O	15.3%
Cc1ccc(S(=O)(=O)CC(=O)c2cc3cccc(C)c3oc2=O)cc1	17.1%
Cc1ccc(CNC(=O)c2nnn(CC(=O)Nc3cccc(C)c3C)c2N)cc1	16.1%
COc1ccc(CNS(=O)(=O)c2ccc(F)c(C(=O)Nc3ccc(OC)cc3)c2)cc1	-4.19%
C=CCNC(=O)C1(S(=O)(=O)c2ccccc2)CC=CC1	2.62%
COCCn1nnnc1SCC(=O)NCc1ccc2c(c1)OCO2	27.9%
COCCNc1c2c(c(C#N)c3nc4ccccc4n13)CCCC2	-44.1%
Cc1ccc(C(c2nnnn2C2CCCC2)N2CCN(c3nc4ccccc4s3)CC2)cc1 (centres unmarked)	2.13%
CC(CC(=O)Nc1ccc(C(N)=O)cc1)c1ccccc1 (centres unmarked)	29.6%
COc1ccc(N2CCN(C(=O)Cn3cnc4sc(C)c(S(=O)(=O)N5CCOCC5)c4c3=O)CC2)cc1	-20.7%
CCOC(=O)c1ccc(NC(=S)NCC(O)c2ccccc2)cc1 (centres unmarked)	-13.3%
CCN1CNC(=S)N(C(C)c2ccccc2)C1 (centres unmarked)	-2.28%
CC1CCCCN1CCCNC(=O)C1CCCN(c2ncnc3c2nc2n3CCCCC2)C1 (centres unmarked)	6.02%
O=C1C=C2C=C[C@@H]3CC2(O1)[C@H]1CCCCN31	-1.2%
COc1cc(NC(=O)C2C3C=CC(C3)C2C(=O)O)c(OC)cc1Cl (centres unmarked)	6.22%
COc1ccc(NC(=O)CCc2nc(-c3ccc(C)cc3)no2)cc1Cl	-5.02%
COc1ccc([C@H]2CC(=O)C=C(c3ccc(CNC(=O)OC(C)(C)C)cc3)C2)cc1	-3.23%
COC(=O)c1ccccc1-n1c(C)nc(=O)c(-c2ccccc2)c1C	10.8%
Cc1ccc(C)c(-n2ccnc2SCC(=O)Nc2cccc(S(=O)(=O)NC3=NCCC3)c2)c1	-24.2%
